From the supplement of paper PMC10338343
± gives the standard deviation. Over roughly 6,600 sequences, “pre-steady-state target cleavage rate” has its median near 0.07; the highest 2% begin near 0.72. The list shows a part of the results, in another mix than the full data.

Test system: MIWI (PIWIL1) piRISC loaded with Kctd7 piRNA (30 nt)
Assay: pre-steady-state target cleavage rate (min^-1); MIWI and MILI are mouse PIWI proteins and EfPiwi is from a freshwater sponge; tags in brackets are library labels; higher = faster piRNA-guided slicing of the target
Conditions: guide: Kctd7 piRNA 5'p-UGUUAAUCUCUCAGAGAAGGUGACAGUGAU; auxiliary factor: 500 nM mouse GTSF1
Method in brief: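 At 33 °C in HEPES–potassium acetate buffer, a transcribed, DNA-blocked target RNA library […] was exposed for 0–8 or 0–960 min to 1 nM active affinity-purified piRISC carrying a single synthetic guide, with or without 500 nM GTSF1 partner protein. Uncleaved targets were sequenced and normalised to depth and to weakly complementary targets. With three trials pooled and k3 capped at 0.0001 min^-1, a burst-and-steady-state fit produced the pre-steady-state cleavage rate.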
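Further: 1 nM active piRISC with 0.1 nM target library at 33 °C single turnover.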

| Sequence | pre-steady-state target cleavage rate |
| --- | --- |
| AUCACUGUCACCAACUCUGAGAGAUUAAGA | 0.0836 ± 0.015 |
| UAGUCUGUCACCUACUCUCAGAGAUUAACA | 0.0648 ± 0.0097 |
| UAGUGUGUGACCUUCUCUCAGAGAUUAACA | 0.0461 ± 0.01 |
| UAGUGAGUGACCAUCUCUGAGAGAUUAACA | 0.266 ± 0.021 |
| UAGUCUGUCACCUUCACUGAGAGAUUUACA | 0.267 ± 0.038 |
| UACACUGUCACCUACUCUGAGAGAUUAUCA | 0.227 ± 0.033 |
| UAGUCUGUCUGCUUCUCUGAGAGAUUAAGA | 0.0401 ± 0.0079 |
| AACACUGUCACCUUCUCUGAGAGAAUAACA | 0.382 ± 0.06 |
| UAGUCUGUCACCUUCUCUGAGAGCUUAACA | 0.228 ± 0.026 |
| UUCACUGUCUCCUUCUCUGAGAGAUUAAGA | 0.109 ± 0.021 |
| UAGUGACUCACCUUGUCUGAGACAUUAACA | 0.132 ± 0.017 |
| UAGUGAGUCACCUUCAGUGAGAGAUUAAGA | 0.0217 ± 0.0064 |
| AUCACUGUGACCUUCUCUGAGACAUUAACA | 0.106 ± 0.01 |
| UAGUGAGAGACCUUCUCUGAGAGAUUAAGA | 0.105 ± 0.021 |
| UAGUGACACUCCUUCUCUGAGAGAAUAACA | 0.032 ± 0.0072 |
| UAGUGACAGUGCUUCUCUGAGAUAUUAACA | 0.00339 ± 0.0022 |
| UUCACUGUGACCUUCUCUGAGAGUUUAACA | 0.34 ± 0.048 |
| AUCACUGUCACCAUCUGUGAGAGAUUAACA | 0.469 ± 0.03 |
| UACACUGUCAGCUUCUCUGAGAGAUUAAGA | 0.0986 ± 0.015 |
| UAGACUGUCACCUUCACUCAGAGAUUAACA | 0.027 ± 0.005 |
| AUCACUGUCACGUUCUCUGAGAGAUUUUGA | 0.00793 ± 0.0038 |
| UAGUGACAGACCUUGUCUGAGACAUUAACA | 0.0361 ± 0.0097 |
| UAGUCUGUCACCUUCUCUGAGAGAGUAACA | 0.376 ± 0.044 |
| UAGUGUGACACCUUCUCUCAGAGAUUAACA | 0.0516 ± 0.0075 |

| Sequence | pre-steady-state target cleavage rate |
| --- | --- |
| UAGUGUGUCACCUUCUCUGAGAGAUAAAGA | 0.0553 ± 0.016 |
| UACACUGUCACCUUCUCUGAGAGAUAUUCA | 0.218 ± 0.059 |
| UAGUGAGUCACCUUCUCUGUGAGAUUUACA | 0.115 ± 0.013 |
| UAGUGACUCACCUUUUCUGAGAGAUUAACA | 0.367 ± 0.023 |
| UAGUGAGUCACCUUCUGAGAGAGAUUAACA | 0.0589 ± 0.0085 |
| UACACUGUCACCUAGUCUGAGAGAUAUUGA | 0.0101 ± 0.0069 |
| AUCACUGUCUGGUUCUCUGAGAGAUUAACA | 0.228 ± 0.022 |
| UACACUCUCACCUUCUCAGAGAGAUUAACA | 0.336 ± 0.028 |
| UAGAGUGUCACCUUCUCUGAGAGAUUAUCA | 0.384 ± 0.048 |
| UAGUGACUCACCUUCUCAGUGAGAUUAACA | 0.00575 ± 0.0028 |
| UAGUGACUCACCCUUCUCUGAGAGAUUAACA | 0.0457 ± 0.0096 |
| UUCACUGUCACCUCCUCUGAGAGAUUAACA | 0.639 ± 0.021 |
| UACACUGUCACCUUCUGUGAGUGAUUAACA | 0.0201 ± 0.0064 |
| UUGACUGUCACCUUCUGUGAGAGAUUAACA | 0.644 ± 0.029 |
| UAGUGACAGACCUUCUCAGAGAGAUAAACA | 0.00664 ± 0.0036 |
| UAGUGAGUCACCUUCUGUGAGUGAUUAACA | 0.0122 ± 0.004 |
| UAGUGACAGUGCUAUCUCUGAGAGAUUAACA | 0.00554 ± 0.0021 |
| AUCACUGUGACCAUCUCUGAGAGAUUAACA | 0.664 ± 0.04 |
| UAGUGACAGACCUUCUCUGACAGUUUAACA | 0.00504 ± 0.0029 |
| AUCACUGUCACCUUCUCUGAGUCUUUAACA | 0.00738 ± 0.0043 |
| UAGUGACUCACCUUCUGUGAGAGAUUAAGA | 0.088 ± 0.02 |
| UAGUGAGACACCUUCACUGAGAGAUUAACA | 0.324 ± 0.025 |
| UAGUGAGGCACCUUCUCUGAGAGAUUAACA | 0.433 ± 0.08 |
| UAGUGUGUCAGCUUCUCUGAGAGUUUAACA | 0.291 ± 0.036 |

| Sequence | pre-steady-state target cleavage rate |
| --- | --- |
| UACACUGUGACCUUCUCUGAGAGAAUAACA | 0.126 ± 0.024 |
| UACUCUGUCACCUUCUCUGAGAGAUUAACA | 0.663 ± 0.03 |
| UAGUCUGUCACAUUCUCUGAGAGAUUAACA | 0.607 ± 0.03 |
| UAGACUGUCACCUUCUCUGAGACAAUAACA | 0.00274 ± 0.0022 |
| UAGUGACACACCUUCUCUGAGAGAUAUAACA | 0.119 ± 0.016 |
| AUCACUGUCACCUUACUCUGAGAGAUUAACA | 0.592 ± 0.034 |
| UAGUGAGUCACCUUUUCUGAGAGAUUAACA | 0.492 ± 0.025 |
| UAGUGACAGUGGAAGACUGAGACGAUUAACA | < 0.0001 |
| UACACUGUCUGCUUCUCUGAGAGAUAUUGA | 0.00442 ± 0.0031 |
| AUGUGUGUCACCUUCUCUGAGAGAUUAACA | 0.466 ± 0.023 |
| UACAGCUGUCACCUUCUCUGAGAGAUUAACA | 0.749 ± 0.036 |
| UAGUGACACACCUUGUCUGUGAGAUUAACA | 0.0639 ± 0.0061 |
| UACUACUGUCACCUUCUCUGAGAGAUUAACA | 0.694 ± 0.032 |
| UUCACUGUCACCUACUCUGAGAGAUUAAGA | 0.17 ± 0.029 |
| UAGUGACACAGCUUCUCUCAGAGAUUAACA | 0.0115 ± 0.0034 |
| AUCACUGUCACGUUGUCUGAGAGAUUAACA | 0.326 ± 0.017 |
| AUCACUGUCACCUUGACUGAGAGAUUAAGA | 0.352 ± 0.087 |
| UAGUGUGUCACCUUCUCUGAGAGAAUAUCA | 0.0617 ± 0.019 |
| UAGUGUGUCACCUUCACUGAGAGAAUAACA | 0.0545 ± 0.011 |
| UAGUGUGUCACCUUCUCUGACAGAUUUACA | 0.224 ± 0.066 |
| AUCACUCACACCUUCUCUGAGAGAUUAUGA | 0.0681 ± 0.016 |
| UAGUGUGACACCAUCUCUGAGAGAUUAACA | 0.416 ± 0.028 |
| AUCACUGUCACCUCUCUGAGAGAUUAACA | 0.587 ± 0.041 |
| UACAGUGUCACCUUCUCUGAGAGAUUUACA | 0.321 ± 0.04 |
